Test results reported in publication PMC4336329 (PLoS ONE, 2015).
Screen size: about 310,000 compounds; about 14,000 (4.5%) showed an effect of 50% or more. The effect is printed as a negative number. Some of the results follow.

Target: human ether-à-go-go-related gene (hERG) potassium channel (human, UniProt Q12809)
Test: primary screen, population patch clamp on CHO cells stably expressing hERG
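Note: peak tail current of the secondary pulse compared with the same well before compound.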

human ether-à-go-go-related gene (hERG) potassium channel, sequence (Q12809 whole entry, looked up): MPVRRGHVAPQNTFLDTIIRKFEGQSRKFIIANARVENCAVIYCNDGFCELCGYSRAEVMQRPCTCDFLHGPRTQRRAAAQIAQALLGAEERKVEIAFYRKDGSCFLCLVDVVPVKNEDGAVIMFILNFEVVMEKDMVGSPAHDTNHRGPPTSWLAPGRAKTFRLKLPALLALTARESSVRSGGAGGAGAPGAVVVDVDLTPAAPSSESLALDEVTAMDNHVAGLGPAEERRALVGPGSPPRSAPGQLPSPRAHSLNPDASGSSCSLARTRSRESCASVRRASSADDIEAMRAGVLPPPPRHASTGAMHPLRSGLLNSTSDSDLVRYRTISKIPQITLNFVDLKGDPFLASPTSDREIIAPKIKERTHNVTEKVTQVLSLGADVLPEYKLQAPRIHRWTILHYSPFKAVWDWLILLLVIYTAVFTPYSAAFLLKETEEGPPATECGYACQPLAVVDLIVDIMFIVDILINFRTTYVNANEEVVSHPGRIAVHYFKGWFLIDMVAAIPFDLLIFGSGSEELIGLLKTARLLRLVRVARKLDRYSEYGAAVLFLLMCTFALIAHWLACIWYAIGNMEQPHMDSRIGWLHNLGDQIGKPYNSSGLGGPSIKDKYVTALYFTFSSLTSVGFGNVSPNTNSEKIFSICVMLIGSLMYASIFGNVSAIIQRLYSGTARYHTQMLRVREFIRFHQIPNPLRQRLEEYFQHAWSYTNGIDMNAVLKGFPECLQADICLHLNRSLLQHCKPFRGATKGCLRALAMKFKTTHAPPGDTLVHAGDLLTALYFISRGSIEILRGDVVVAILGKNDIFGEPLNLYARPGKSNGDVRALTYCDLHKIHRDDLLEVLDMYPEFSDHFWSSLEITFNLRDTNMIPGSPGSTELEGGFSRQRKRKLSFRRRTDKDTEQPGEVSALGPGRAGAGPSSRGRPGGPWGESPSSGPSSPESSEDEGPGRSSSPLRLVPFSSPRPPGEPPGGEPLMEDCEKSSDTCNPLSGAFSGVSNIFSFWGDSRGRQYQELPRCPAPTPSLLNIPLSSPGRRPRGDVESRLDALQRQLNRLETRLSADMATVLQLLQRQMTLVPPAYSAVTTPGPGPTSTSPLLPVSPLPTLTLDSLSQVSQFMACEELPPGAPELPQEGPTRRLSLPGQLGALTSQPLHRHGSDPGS

Structure (SMILES) | hERG current change (%, negative = inhibition) at 10uM
O=C(C[n+]1ccccc1)Nc1ccccc1C(=O)O.[Cl-] | 0.4%
C/C(=N\NC(=O)c1ccc(Cl)cc1)c1ccccn1 | 2.27%
CCc1cc(=O)oc2cc(C)cc(OCC(=O)NCCN3CCOCC3)c12 | 12.3%
Cc1ccc(Nc2nc(Oc3ccc(=O)[nH]n3)nc(N(C)C)n2)cc1 | -6.87%
O=C(O)c1cccc(S(=O)(=O)N2CC=C(c3ccccc3)CC2)c1 | -4.64%
COc1ccc(CCN(C)C(=O)CNC(=O)Cc2cccc3ccccc23)cc1OC | -1.9%
N#C/C(=C\c1cccnc1)C(=O)NC1CCCCC1 | 1.59%
O=S(=O)(c1cccs1)n1nnc2ccccc21 | 19.3%
Cc1c(N=Cc2ccc(-c3ccc(Cl)cc3)o2)c(=O)n(-c2ccccc2)n1C | -15.3%
CCC1CCCCN1C(=O)COc1ccc(N(C)S(=O)(=O)c2ccc(C)cc2)cc1 (centres unmarked) | -40.3%
O=C(CSc1nc(-c2ccccc2)cs1)N1CCc2ccccc21 | 3.61%
COc1ccc(Nc2oc(-c3ccccc3)nc2C#N)cc1 | 18.1%
Cc1cc(C)cc(N(C(=O)Cc2cccs2)C(C(=O)NC2CCCC2)c2ccc(C)o2)c1 (centres unmarked) | 2.77%
COc1ccc(CCNC(=O)CN(C)S(=O)(=O)c2ccc3c(c2)CCC(=O)N3)cc1OC | 1.09%
COc1cc(/C=C2\SC(=S)N(N3CCOCC3)C2=O)cc(OC)c1OC | 3.1%
CC1(C)C(CO)=CC(=O)C2=C1SCC(=O)N2 | -16.3%
COc1ccc(OC)c(NC(=O)C2CCCN(S(=O)(=O)c3cccc4cccnc34)C2)c1 (centres unmarked) | -4.01%
COc1ccccc1C1NC(=O)NC(C)=C1C(=O)Nc1cccc(C)c1C (centres unmarked) | 20.2%
O=C(COC(=O)C1CCN(S(=O)(=O)c2ccccc2C(F)(F)F)CC1)NCc1ccc(F)cc1 | -8.33%
COc1cccc(CN2CCN(C3CCN(c4ccccc4C)CC3)CC2CCO)c1 (centres unmarked) | -66.2%
COc1ccc2ccccc2c1/C=N/NC(=O)c1ccccc1F | -20.3%
Cc1ccc(OC(=O)CCC(=O)Nc2ccc(S(=O)(=O)Nc3cc(C)on3)cc2)cc1 | 0.482%
Cc1cc(C)c(NC(=O)CS(=O)CC(=O)Nc2ccc(-n3cnnn3)c(C)c2)c(C)c1 (centres unmarked) | 24.1%

Structure (SMILES) | hERG current change (%, negative = inhibition) at 10uM
CCCCOCC1CN(c2ccccc2)C(=O)CS1 (centres unmarked) | 5.11%
CCn1c(COc2cccc(C)c2C)nnc1SCC(=O)Nc1cc(C)on1 | 19.1%
N#Cc1c(N2CCCCC2)nc(N)c2c(N)nc3c(c12)CC(c1ccccc1)O3 (centres unmarked) | 0.369%
Cc1cc(=O)[nH]c(N2CCN(C(=O)c3ccco3)CC2)n1 | 14%
CC1N(C)c2cc(NC(=O)c3ccco3)c(P(=O)(Nc3ccc([N+](=O)[O-])cc3)N3CCOCC3)cc2C1(C)C (centres unmarked) | -56%
O=C(O)c1cc(NS(=O)(=O)c2ccc(NC3CCCCC3)c([N+](=O)[O-])c2)cc(C(=O)O)c1 | 15.7%
CCOc1ccc(N(CC(=O)NC(C)(C)C)S(=O)(=O)c2c(C)noc2C)cc1 | -15.5%
COc1ccc(CCNC(=S)NC(=O)c2cc(OC)c(OC)c(OC)c2)cc1OC | 7.56%
CCCn1c(CN2CCN(C(=O)c3ccco3)CC2)nc2c1c(=O)n(C)c(=O)n2C | -10.3%
CCN(CC)C(=O)C1CCN(Cc2ccc(Br)cc2)CC1.O=C(O)C(=O)O | -51.4%
Cl.c1ccc(Nc2c3c(nc4ccccc24)CCC3)cc1 | -76.2%
Cc1c(Cl)cccc1NC(=O)NN1CCN(C)CC1 | -0.937%
Cc1ccc(Nc2nc3ccccc3o2)cc1F | 21%
CC1=C(C(=O)OCC2CCCO2)C(c2ccc(C)cc2)C2=C(CCCC2=O)N1 (centres unmarked) | 14.4%
Cc1ccc(C)c(NC(=O)CSc2nc(=O)n(CCN3CCOCC3)c3c2CCCC3)c1 | -24.2%
COc1ccc(NC(=O)C(=S)N2CCCC2)cc1 | 11.1%
CCCn1nnnc1NC(=O)c1cccs1 | 25.5%
COc1ccccc1N1CCN(C(=O)c2cc(=O)c3cc(C)ccc3o2)CC1 | -50.7%
c1cncc(C2CCCCN2Cc2ccc3c(c2)OCO3)c1 (centres unmarked) | 0.758%
Cc1cc(C)cc(-n2cnc3cc(C(=O)O)ccc32)c1 | 2.82%
OC(CN1CCOCC1)c1ccc(F)cc1 (centres unmarked) | 12.6%
O=C(NCC(c1ccco1)N1CCCC1)c1cccc(NS(=O)(=O)c2ccccc2)c1 (centres unmarked) | -5.9%
Cc1csc(-c2cnn(-c3ccccc3)c2NC(=O)c2ccccc2)n1 | 10.3%

Structure (SMILES) | hERG current change (%, negative = inhibition) at 10uM
Oc1ccc(-c2nc3ccccc3s2)cc1 | 1.14%
O=C(NC1CCCC1)c1cccc(Cl)c1 | 29.8%
O=[N+]([O-])c1ccc(OCCCn2cncn2)cc1 | -22.6%
O=S(=O)(Cc1ccc(Cl)cc1)c1ccccc1-c1nnc(-c2ccccc2)o1 | 11.2%
CCN1CCc2c(sc(NC(=O)COc3ccccc3)c2C(=O)OC)C1.Cl | -62.6%
COc1cccc(/C(C#N)=C/c2c(-c3ccc(Cl)cc3)nc3c(C)cccn23)c1 | 10.1%
COC(=O)C1=C(C)NC(C)=C(C(=O)OC)C1C(=O)OCC(=O)N1c2ccccc2CC1C (centres unmarked) | -0.858%
CCCc1cc(C(=O)Nc2cccnc2)no1 | 5.01%
O=C(O)C1CCC(CNCc2ccccc2Cl)CC1 (centres unmarked) | -3.19%
COc1ccc(NC(=O)Cn2nnc(-c3ccccc3NC(=O)C3CC3)n2)cc1 | 3.42%
C/C(=N\NC(=O)c1c[nH]c2ccccc12)c1ccc(C)s1 | -7.68%
Cc1cccc(-n2nnc(C(=O)NCc3ccccc3Cl)c2N)c1 | 10.1%
Cc1ccc(CC(=O)NC(C)CCc2ccccc2)cc1 (centres unmarked) | 2.65%
CSc1ncccc1C(=O)NNC(=O)c1ccc(NS(=O)(=O)c2cccs2)cc1 | 9.7%
O=C(NC1CC1)c1cccc(NC(=O)c2cn3ccccc3n2)c1 | -18.6%
CCc1ccc(CCC(=O)Nc2ccc(Cl)cc2)o1 | 9.4%
O=C(Cc1cccs1)NNC(=O)C12CC3CC(CC(C3)C1)C2 | 22.5%
CSc1cccc(NC(=O)C(=O)NCc2ccccc2)c1 | -28.8%
O=C(CNCc1ccc(Cl)cc1)NCc1ccco1.O=C(O)C(=O)O | -17.3%
COc1ccc(NCC(=O)N/N=C(\C)c2cc3ccccc3o2)cc1 | -28.7%
CC1=NC(=O)C(N=Nc2ccccc2)N1c1ccccc1 (centres unmarked) | -8.37%
CCOC(=O)N1CCN(C(=O)CN(c2ccccc2)S(C)(=O)=O)CC1 | 22.2%
CCOC(=O)C1(CC2CCCCO2)CCN(C(=O)Nc2cccc(SC)c2)CC1 (centres unmarked) | -9.02%

Structure (SMILES) | hERG current change (%, negative = inhibition) at 10uM
Cc1ccc(N2C(=O)C3C(C2=O)N2CCCN2C3c2ccccc2)cc1C (centres unmarked) | 4.15%
CCOC(=O)c1nn(-c2ccccc2C)c2nc(-c3ccc(Cl)cc3)c(C#N)c(=O)n12 | 12%
CC1(C)CC(=O)C2=C(C1)OC(N)=C(C#N)C2c1ccccc1 (centres unmarked) | -14.4%
O=C(CSc1ncn[nH]1)Nc1ccccc1Sc1ccc(Cl)cc1 | -28.2%
O=c1c2ccc([N+](=O)[O-])cc2ncn1CCOc1ccccc1 | -8.16%
COc1ccc(OCC(=O)Nc2nc3ccccc3[nH]2)cc1 | 1.01%
CC(=Nc1ccc2c(c1)CCC2)c1c(O)n(C2CCCCC2)c(=O)[nH]c1=O | 8.58%
O=C1NC(=O)N(CCc2ccc(F)cc2)C(=O)/C1=C/C=C/c1ccccc1 | -0.806%
COc1ccc(CNC(=O)c2ccc(N3CCC4(CC3)CC(c3ccc(Cl)cc3)=NO4)c(NC(=O)c3ccccc3)c2)cc1 | 8.81%
N/C(=N\O)c1ccc([N+](=O)[O-])s1 | 11%
COc1ccc(NC(=O)c2cccs2)cc1OC | -9.25%
Clc1ccc(Sc2oc(/C=N/n3cnnc3)cc2Br)cc1 | 10.5%
O=[N+]([O-])c1cccc(CSc2cccc[n+]2[O-])c1 | 12.4%
CC1Cc2ccccc2N1S(=O)(=O)c1cccc(C(=O)NC2CC2)c1 (centres unmarked) | -40%
O=C(Nc1ccccc1)N(C1=NCCCCS1)c1ccccc1 | 8.39%
Cc1ccc(NC(=O)N/C=C/c2ccco2)cc1 | -2.2%
COc1ccc(S(=O)(=O)N(C)CC(=O)NCCC2=CCCCC2)cc1OC | -17.1%
COc1ccc(CCNC(=O)c2nc(-c3cccs3)no2)cc1OC | -12.6%
O=C(NC1CCS(=O)(=O)C1)c1ccc(Br)o1 (centres unmarked) | 14.4%
CC(=O)N1CCN(c2ccc([N+](=O)[O-])cc2C=C2C(=O)NC(=O)NC2=O)CC1 | -56.6%
